This is one part of the list. These are further read-outs of the screen, such as a control signal, another cell line or another target. No call is given for them.

In PubChem BioAssay AID1745853 (National Center for Advancing Translational Sciences (NCATS), 2022) one finds activity change, negative = inhibition data, which are given here for 31 molecules.

What all share (assay): Primary Screen for Target Class Profiling of Small Molecule Inhibitors of Methyltransferases
Assay [1] deals with Glycine N-methyltransferase (Homo sapiens) (UniProt Q14749). As to conditions: purified enzyme, MTase-Glo SAH luminescence; measured here: GNMT inhibition; at 40 µM; stronger effect = lower value. An outline of the steps: (§1)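 Each enzyme was assayed with SAM and its substrate. SAH formation detected by MTase-Glo luminescence; single-point 40 uM screen[…].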
The target of assay [2] is Guanidinoacetate N-methyltransferase (Homo sapiens) (UniProt Q14353). The note with it: purified enzyme, MTase-Glo SAH luminescence; measured here: GAMT inhibition; at 40 µM; stronger effect = lower value. In a few lines: as §1
In assay [3] the target is Histamine N-methyltransferase (Homo sapiens) (UniProt P50135). As to conditions: purified enzyme, MTase-Glo SAH luminescence; measured here: HNMT inhibition; at 40 µM; stronger effect = lower value. An outline of the steps: as §1
The target of assay [4] is Nicotinamide N-methyltransferase (Homo sapiens) (UniProt P40261). As to conditions: purified enzyme, MTase-Glo SAH luminescence; measured here: NNMT inhibition; at 40 µM; stronger effect = lower value. In a few lines: as §1
In assay [5] the target is Phenylethanolamine N-methyltransferase (Homo sapiens) (UniProt P11086). As to conditions: purified enzyme, MTase-Glo SAH luminescence; measured here: PNMT inhibition; at 40 µM; stronger effect = lower value. An outline of the steps: as §1
% is set by controls: 0 for no effect and ±100 for the full control effect.

For `CN(C)c1ccc(C2c3cccn3-c3ccccc3CN2C(=O)NC2CCCC2)cc1` (stereo not drawn), the activity change, negative = inhibition in assay [1] was 9.96%; in assay [2] it was 1.02%; in assay [3], -3.46%; in assay [4] it was -2.64%; in assay [5], 5.89%.
For the molecule `N#CC(OC1OC(COC2OC(CO)C(O)C(O)C2O)C(O)C(O)C1O)c1ccccc1` (stereo not drawn), the values for the activity change, negative = inhibition in assay [1] and in assay [3] were 0% and 0.488%, respectively.
In the case of `CC(C)N1CC2CCC(C1)N2Cc1cccs1`, the activity change, negative = inhibition was -3.6% in assay [1]; -5.73% in assay [2]; -3.38% in assay [3]; -9.19% in assay [4]; -7.03% in assay [5].
The like results for `Cc1ccc(NC(=O)N2Cc3ccccc3-n3cccc3C2c2cccs2)cc1` (stereo not drawn) were, in that order, 7.35%, 0.644%, 2.77%, 4.7% and 7.18%.
The like results for `O=C(NCc1ccccc1)N1Cc2ccccc2-n2cccc2C1c1ccccc1` (stereo not drawn) were, in that order, 7.06%, 3.26%, 1.92%, -8.25% and 5.41%.
The like results for `CC(C)N1C[C@@H]2OCC(=O)N(Cc3ccccn3)[C@@H]2C1` were, in that order, -4.16%, -1.25%, -0.132%, -0.913% and 1.76%.
For the molecule `CO/C1=C/C(C)=C\[C@@H](C)[C@@H](O)[C@@H](C)C/C(C)=C\C=C/[C@H](OC)[C@@H]([C@@H](C)[C@@H](O)[C@H](C)[C@@]2(O)C[C@@H](O)[C@H](C)[C@@H](C(C)C)O2)OC1=O`, the values for the activity change, negative = inhibition in assay [2], in assay [4] and in assay [5] were 9.22%, -3.73% and 5.61%, respectively.
For `N=C(N)c1ccc(CS(=O)(=O)F)cc1`, the activity change, negative = inhibition in assay [1] came to 3.41%; in assay [2], 12%; in assay [3] it was 4.86%; in assay [4], 0.398%; in assay [5], 7.37%.
The like results for `C=C1C(=O)CC2OC2(C)CC2OC(=O)C(=C)C2C(O)C1OC(=O)/C(C)=C\C` (stereo not drawn) were, in that order, -0.812%, -4.26%, 6.02%, -18.5% and -14.8%.
The like results for `O=C(O)CNC(=O)c1c(O)c2ccccc2n(Cc2ccccc2)c1=O` were, in that order, 1.63%, -2.04%, 5.83%, -11.4% and 1.02%.
The like results for `Cc1ccccc1C1c2cccn2-c2ccccc2CN1C(=O)Nc1ccccc1` (stereo not drawn) were, in that order, 10.5%, 0%, 7.89%, 3.16% and 5.9%.
For `Cc1cc(C[C@@H]2COC[C@@H]2NC(=O)c2cn(C)c3ccccc23)on1`, the activity change, negative = inhibition was -3.65% in assay [1]; -8.47% in assay [2]; -2.04% in assay [3]; -3.94% in assay [4]; -5.29% in assay [5].
The like results for `COc1ccc(OC)c(NC(=O)N2Cc3ccccc3-n3cccc3C2c2cccc(Cl)c2)c1` (stereo not drawn) were, in that order, 10.3%, 1.29%, 4.21%, 5.55% and 6.63%.
`CCOC(=O)Cc1ccc(NC(=O)N2Cc3ccccc3-n3cccc3C2c2ccc(F)cc2)cc1` (stereo not drawn): the activity change, negative = inhibition is -0.594% in assay [1]; 2.95% in assay [2]; 3.39% in assay [3]; 6.19% in assay [4]; 7.54% in assay [5].
The like results for `C=C[C@H]1CN2CC[C@H]1C[C@@H]2CNS(=O)(=O)c1ccc(Cl)cc1` were, in that order, -6.64%, -9.17%, -5.89%, -11.3% and 6.08%.
Take `NC(=NCCC[C@H](N)C(=O)O)N[N+](=O)[O-]`: the activity change, negative = inhibition in assay [1] was 3.51%; in assay [2], 13%; in assay [3] it was 8.87%; in assay [4], -1.41%; in assay [5], 6.18%.
The like results for `COCCn1c(C)cc(C(=O)NC2CCc3nnc(C4CC4)n3CC2)c1C` (stereo not drawn) were, in that order, -1.32%, 0.277%, -0.978%, -1.33% and -2.86%.
As for `O=C1NC(=O)c2c1c1c3ccccc3[nH]c1c1[nH]c3ccccc3c21`, the activity change, negative = inhibition in assay [2] is -37.7%; in assay [4] it was -51%; in assay [5], -19%.
Turning to `CC(CCc1ccccc1)NC(C)C(O)c1ccc(O)cc1` (stereo not drawn), the activity change, negative = inhibition was -4.28% in assay [1]; 6.93% in assay [2]; -9.18% in assay [3]; -9.87% in assay [4]; 1.38% in assay [5].
The like results for `CCCOC(=O)Cc1ccc(OCC(=O)N(CC)CC)c(OC)c1` were, in that order, -2.45%, -4.37%, -4.19%, -22.1% and -9.09%.
The like results for `COc1ccc(C2c3cccn3-c3ccccc3CN2C(=O)Nc2cccc(C)c2)cc1` (stereo not drawn) were, in that order, 6.96%, 0%, -0.082%, 0.373% and 4.97%.
The like results for `COc1ccc(C)cc1NC(=O)N1Cc2ccccc2-n2cccc2C1C(C)C` (stereo not drawn) were, in that order, 2.35%, 0.159%, 4.39%, 1.73% and 6.92%.
On to `CCc1ccc(NC(=O)N2Cc3ccccc3-n3cccc3C2CC)cc1` (stereo not drawn), for which the activity change, negative = inhibition in assay [1] was determined as 1.05%; in assay [2] it was 0%; in assay [3] it was 2.55%; in assay [4] it was 1.64%; in assay [5] it was 7.11%.
The like results for `CC1c2cccn2-c2ccccc2CN1C(=O)Nc1ccc(F)cc1` (stereo not drawn) were, in that order, 11.5%, 4.43%, 5.11%, -5.73% and 5.4%.
The like results for `COc1cccc(CNC(=O)N2Cc3ccccc3-n3cccc3C2C(C)C)c1` (stereo not drawn) were, in that order, -3.01%, -0.592%, -3.19%, -3.77% and 2.45%.
Consider `CCc1ccc(NC(=O)N2Cc3ccccc3-n3cccc3C2c2ccccc2Cl)cc1` (stereo not drawn), for which the activity change, negative = inhibition in assay [1] is 5.13%; in assay [2], 5.46%; in assay [3], -3.94%; in assay [4] it was -1.97%; in assay [5], 1.48%.
The like results for `O=C1C[C@@H]2OCC=C3CN4CC[C@]56c7ccccc7N1[C@H]5[C@H]2[C@H]3C[C@H]46` were, in that order, 4.83%, 2.73%, 9.48%, -10.3% and 6.71%.
The like results for `CCc1ccccc1NC(=O)N1Cc2ccccc2-n2cccc2C1C(C)C` (stereo not drawn) were, in that order, 1.41%, 0.386%, 3.93%, 2.98% and 4.68%.
The like results for `CC1=CC(=O)[C@@H](O)[C@]2(C)C3[C@@H](O)[C@@H]4OC(=O)[C@@H]([C@H]4C)[C@]3(C)C(=O)[C@H](O)[C@@H]12` (stereo partly drawn) were, in that order, 4.34%, 7.16%, 7.5%, -4.75% and 7.88%.
`COc1ccc(C2c3cccn3-c3ccccc3CN2C(=O)Nc2cccc(C)c2C)cc1` (stereo not drawn): the activity change, negative = inhibition in assay [1] is 12%; in assay [2] it was 1.95%; in assay [3], 5.68%; in assay [4], -1.22%; in assay [5], 5.73%.
The like results for `C/C=C(\C)C(=O)OC1CC2C(CC=C3CC(OC4CC(OC)C(OC5CC(OC)C(OC6OC(C)C(OC7OC(CO)C(O)C(O)C7O)C(OC)C6O)C(C)O5)C(C)O4)CCC32C)C2(O)CCC(C(C)=O)C12C` (stereo not drawn) were, in that order, 7.25%, 21.9%, 12%, 4.45% and 8.9%.
